# Values marked as one replicate rest on one cluster of the flow cell; about a third of the high ones do not repeat.
# Tested on: ATP
# Experiment: switch fluorescence ratio, 500 uM ATP over buffer (Cy3 cluster intensity, sum of 5 cycles each) (fold (ratio)); higher = stronger signal-on switching upon ATP binding; sequences stand for … in TCGTCGGCAGCGTCAGATGTGTATAAGAGACAGTTTTTTTTTTTTTTTTTTTTTTTTT…TC
# Conditions: aptamer strand: ATP DNA aptamer (quencher-CACCTGGGGGAGTATTGCGGAGGAAGG + anchor), 100 nM annealed; ATP concentration: 500 uM; one replicate
# Summary of the method: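 Clusters with intensities outside 100-1000 RFU were excluded. The remaining Cy3-labelled switching-strand clusters on a modified Illumina MiSeq flow-cell had been annealed to 100 nM quencher-labelled ATP aptamer and imaged in selection buffer, then after 15 min with 500 uM ATP at 22 °C, for five cycles separated by NaOH stripping and re-annealing. The fluorescence ratio, averaged per switch-domain sequence, is each cluster's summed target-cycle Cy3 intensity over its summed buffer-cycle Cy3 intensity.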
# 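Note: ATP exposure 15 min at 22 °C before imaging.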
row,Sequence,switch fluorescence ratio
1,AAAACCTCTT,1.01
2,GAAAGTCTG,0.966
3,AGTGCTTTGA,1.01
4,ATGATTATCG,0.968
5,GGAAGTAAGA,0.987
6,GACAAAGTCC,1.06
7,TGTTATCAGT,1
8,CAAAGTGTA,1.15
9,GTCGGCTCCT,0.981
10,TCTGTTTCTA,1.02
11,ATCTCGGCAT,1.73
12,ATTATTGTTT,1.01
13,TAAGAAAGC,1.82
14,TGTGAATTAT,0.987
15,CAGTCTTCT,0.973
16,TATACATCCG,1.06
17,TAAAGCGTCG,0.974
18,CAGTATCCTC,0.971
19,ATGCCATAGA,1.02
20,AATGGCCCTG,1.01
21,ATAGTATTGC,0.993
22,TTTGTAGAAA,1.02
23,TGACAGGATC,0.996
24,TCGTCCTGAT,0.969
25,ACGCGGCCT,0.998
26,TCGTATACTT,1.01

row,Sequence,switch fluorescence ratio
1,GCTGGGGCTA,1.02
2,TTGAGAC,0.982
3,CTCATTTCGT,0.987
4,TCGGGTCTAG,0.996
5,TGGTCAGGAC,0.994
6,CATCTGACTT,1.05
7,GCTATCTAGT,0.986
8,GCTAGGGAAA,0.977
9,CGGCAGAATT,1.9
10,GCGCTACTAA,1.12
11,TGCCGGGCCT,1.03
12,AGTGTCGGCG,0.995
13,AATCTTAGA,1
14,ATCATTACCT,1.21
15,GCATGCGGGT,1.01
16,GTATGAAAAA,0.989
17,ATTGCGAACC,1.05
18,AAAAGTTACT,0.995
19,GTGAGCATAC,4.9
20,CGCGTTAGTT,0.981
21,CCTGACTAGG,0.913
22,TCAGGTCAAA,1.02
23,CGGAATTTCA,1.02
24,TAGAGTGGTG,0.971
25,AAAGGTGCTC,1.07
26,TGCCCGTATA,1.04

row,Sequence,switch fluorescence ratio
1,TTTTCATCGG,0.997
2,ATTGTGTTA,0.979
3,ACTAAGAAGA,1.01
4,TCAGACTTTT,0.965
5,GTCAGTTGGG,0.974
6,CGACATGACC,1.15
7,ACCACATACG,1.55
8,GACACAGTGG,1.05
9,ACCGGAACTT,1.11
10,AAGCGATGCT,1.11
11,GGGCGCTACT,1.04
12,GACGTAGCAC,5.16
13,GATGCGGGAT,1
14,CTTTGTTTCT,1.02
15,CTGGTAAGAT,1.03
16,AATTCAGGTC,1
17,TGGCGTGTTT,0.979
18,GAACACTTAG,1.07
19,AGGGATCTAG,0.984
20,GCGTCGCAGA,1
21,TCCTGTAAAC,1.34
22,GCGGGATTCA,0.996
23,TTCGTAGTTA,1.04
24,ATGCTATGCA,0.996
25,CCTCATTTAA,1.09
26,TGAAGCCTAA,1.06

row,Sequence,switch fluorescence ratio
1,GCAATTGCTT,0.984
2,TTGTGACGAC,1.09
3,TTTAGCAAAT,1.16
4,AAGACATGGA,1
5,TAAGAGAGGC,1.02
6,AGCGCGACCG,1.02
7,ACAGTAAACG,0.933
8,TTTTGCTCCC,1.34
9,TCAGTCTGAG,0.99
10,CATCTGTGTT,1
11,GGGAGATACT,1.01
12,AACGGGCCTC,1.06
13,GTGGCCACTG,1.01
14,GCCATACTGT,1.09
15,GTCAATGTGT,0.978
16,GTGATTAGTA,1
17,TGCGGGCTTA,1.06
18,TTGGATAAGC,1.02
19,GGGACTAGGA,0.969
20,AGGGGACATC,1.03
21,GTTAGGATGT,1
22,TGACTAAGGC,1.03
23,CGCAGCTTTA,2.53

# Reference: the supplement of paper PMC10126150
